The IC50 comes from the fitted curve, where viability falls to half of the control; a fit beyond the top or the lowest dose is shown as a bound at that dose. The AUC spans the tested range (256-fold, ending at the top dose) of the same fit; values near 1 show little effect. For part of these data: The top dose, if marked as inferred, is not printed in the source and was worked back from the curve model. For part of these data: An entry number marks a drug with two screens in the source, which often give different values.
Experiments:
Assay in all cases: Viability of human cancer cell lines after 72 h of drug (GDSC screen)
[1] = compound: Cc1cn(-c2cc(NC(=O)c3ccc(C)c(Nc4nccc(-c5cccnc5)n4)c3)cc(C(F)(F)F)c2)cn1 [Nilotinib]; conditions: top dose 2 µM
Experimental: (§1)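 Human cancer cell lines in 384-well plates, medium with 10% serum, drug for 72 h over a 256-fold dose range (nine 2-fold or five 4-fold steps up to the top dose). Adherent lines were fixed and stained with the nucleic acid dye Syto60, suspension lines read with resazurin; signal relative to control wells, capped at 0 and 100%. One two-parameter sigmoid per drug and line, fitted in a mixed model over all curves with the slope shared within a line.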

[2] = compound: CCNC(=O)c1noc(-c2cc(C(C)C)c(O)cc2O)c1-c1ccc(CN2CCOCC2)cc1 [AUY922]; conditions: top dose 0.256 µM; top dose inferred
Experimental: as §1

[3] = compound: O=S(=O)(c1ccccc1)N(CC(F)(F)F)c1ccc(C(O)(C(F)(F)F)C(F)(F)F)cc1 [T0901317]; conditions: top dose 10.24 µM; top dose inferred
Experimental: as §1

[4] = compound: Cc1ccc(Nc2cc(-c3cccc(N4C(=O)c5ccccc5C4=O)c3)ncn2)cc1NS(C)(=O)=O [KIN001-270]; conditions: top dose 20 µM; top dose inferred
Experimental: as §1

[5] = compound: NC(=O)c1cccc(-c2cc(Nc3ccc(OC(F)(F)F)cc3)ncn2)c1 [GNF-2]; conditions: top dose 1.28 µM; top dose inferred
Experimental: as §1

[6] = compound: S=C(NCc1ccc2c(c1)OCO2)N1CCN(c2ncnc3c2oc2ccccc23)CC1 [MP470]; conditions: top dose 20 µM; top dose inferred
Experimental: as §1

[7] = compound: Nc1ccn([C@@H]2O[C@H](CO)[C@@H](O)C2(F)F)c(=O)n1 [Gemcitabine]; conditions: top dose 1.024 µM
Experimental: as §1

[8] = compound: CC(O)(CS(=O)(=O)c1ccc(F)cc1)C(=O)Nc1ccc(C#N)c(C(F)(F)F)c1 [Bicalutamide]; conditions: top dose inferred
Experimental: as §1

[9] = compound: C/C(O)=C(\C#N)C(=O)Nc1cc(Br)ccc1Br [LFM-A13]; conditions: top dose 16 µM; top dose inferred
Experimental: as §1

[10] = compound: CC(C)c1ccccc1Cc1cc(C(=O)Nc2ccc(S(=O)(=O)c3ccccc3C(C)(C)C)cc2)c(O)c(O)c1O [TW-37]; conditions: top dose 5 µM
Experimental: as §1

[11] = top dose 1.024 µM, screen: GDSC drug entry 150
[12] = top dose 10 µM, screen: GDSC drug entry 1502

Row | Cell Line | AUC [1] | IC50 [1] [nM] | AUC [2] | IC50 [2] [nM] | AUC [3] | IC50 [3] [nM] | AUC [4] | IC50 [4] [nM] | AUC [5] | IC50 [5] [nM] | AUC [6] | IC50 [6] [nM] | AUC [7] | IC50 [7] [nM] | AUC [8, 11] | IC50 [8, 11] [nM] | AUC [8, 12] | IC50 [8, 12] [nM] | AUC [9] | IC50 [9] [nM] | AUC [10] | IC50 [10] [nM]
1 | AM-38 (glioma, semi-adherent) | 0.983 | > 2000 | 0.473 | 13.5 | 0.975 | > 10200 | 0.951 | > 20000 | 0.988 | > 1280 | 0.612 | 2560 | 0.25 | 12 | 0.988 | > 1020 | 0.987 | > 10000 | 0.977 | > 16000 | 0.668 | 927
2 | AMO-1 (haematopoietic neoplasm, suspension) | 0.991 | > 2000 | 0.535 | 19.7 | 0.969 | > 10200 | 0.931 | > 20000 | 0.988 | > 1280 | 0.848 | 11800 | 0.763 | 321 | 0.987 | > 1020 | 0.982 | > 10000 | 0.948 | > 16000 | 0.665 | 834
3 | ARH-77 (myeloma, suspension) | 0.987 | > 2000 | 0.569 | 24.6 | 0.959 | > 10200 | 0.972 | > 20000 | 0.988 | > 1280 | 0.976 | > 20000 | 0.216 | 9.79 | 0.987 | > 1020 | 0.974 | > 10000 | 0.976 | > 16000 | 0.653 | 818
4 | ATN-1 (T-cell lymphoblastic leukaemia, suspension) | 0.955 | > 2000 | 0.787 | 103 | 0.98 | > 10200 | 0.982 | > 20000 | 0.97 | > 1280 | 0.954 | > 20000 | 0.124 | 4.54 | 0.984 | > 1020 | 0.951 | > 10000 | 0.984 | > 16000 | 0.619 | 650
5 | BB30-HNC (head and neck, adherent) | 0.967 | > 2000 | 0.394 | 8.21 | 0.974 | > 10200 | 0.92 | > 20000 | 0.985 | > 1280 | 0.936 | > 20000 | 0.061 | < 4 | 0.986 | > 1020 | 0.982 | > 10000 | 0.974 | > 16000 | 0.392 | 159
6 | BB49-HNC (head and neck, adherent) | 0.978 | > 2000 | 0.528 | 19.7 | 0.973 | > 10200 | 0.976 | > 20000 | 0.919 | > 1280 | 0.959 | > 20000 | 0.968 | > 1020 | 0.941 | > 1020 | 0.95 | > 10000 | 0.932 | > 16000 | 0.72 | 1730
7 | BB65-RCC (kidney, adherent) | 0.918 | > 2000 | 0.489 | 14.9 | 0.98 | > 10200 | 0.965 | > 20000 | 0.975 | > 1280 | 0.778 | 9400 | 0.086 | < 4 | 0.982 | > 1020 | 0.972 | > 10000 | 0.924 | > 16000 | 0.402 | 162
8 | BE2-M17 (neuroblastoma, adherent) | 0.97 | > 2000 | 0.8 | 128 | 0.939 | > 10200 | 0.971 | > 20000 | 0.984 | > 1280 | 0.324 | 398 | 0.72 | 274 | 0.983 | > 1020 | 0.963 | > 10000 | 0.978 | > 16000 | 0.174 | 30.9
9 | BE-13 (lymphoblastic leukaemia, suspension) | 0.77 | 713 | 0.608 | 31 | 0.951 | > 10200 | 0.944 | > 20000 | 0.948 | > 1280 | 0.932 | > 20000 | 0.237 | 11.8 | 0.987 | > 1020 | 0.971 | > 10000 | 0.982 | > 16000 | 0.608 | 606
10 | BL-41 (Burkitt lymphoma, suspension) | 0.988 | > 2000 | 0.535 | 19.5 | 0.074 | 42.1 | 0.773 | 6010 | 0.987 | > 1280 | 0.151 | 157 | 0.17 | 9.17 | 0.994 | > 1020 | 0.994 | > 10000 | 0.991 | > 16000 | 0.374 | 153
11 | BV-173 (chronic myeloid leukaemia, suspension) | 0.074 | < 7.81 | 0.777 | 90.7 | 0.95 | > 10200 | 0.954 | > 20000 | 0.597 | 143 | 0.84 | 11400 | 0.881 | 854 | 0.988 | > 1020 | 0.98 | > 10000 | 0.988 | > 16000 | 0.412 | 185
12 | Becker (glioma, adherent) | 0.975 | > 2000 | 0.493 | 15.3 | 0.963 | > 10200 | 0.97 | > 20000 | 0.983 | > 1280 | 0.919 | > 20000 | 0.637 | 161 | 0.982 | > 1020 | 0.971 | > 10000 | 0.961 | > 16000 | 0.498 | 309
